Residue numbers refer to the chain shown, from its start.
Key:
Format in all cases: cell-based
[1] = system: RAJI CD19 KO A7 (CD19-/CD20+) cells
[2] = system: DAUDI (CD20+) cells
[3] = system: RS411 cells

B1: 4088 (protein)
chain: MALPVTALLLPLALLLHAARPDIQMTQSPSSLSASVGDRVTITCKASDHINNWLAWYQQKPGQAPKLLIYGATTLETGVPSRFSGSGSGTDYTLTISSLQPEDFATYYCQQSWNTPWTFGQGTKLEIKRLEIQNPDPAVYQLRDSKSSDKSVCLFTDFDSQTNVSQSKDSDVYITDKCVLDMRSMDFKSNSAVAWSNKSDFACANAFNNSIIPEDTFFPSSDVPCDVKLVEKSFETDTNLNFQNLSVIGFRILLLKVAGFNLLMTLRLWSSRAKRSGSGVKQTLNFDLLKLAGDVESNPGPTSMDWIWRILFLVGAATGAHSGPQVQLQESGGGLAQAGGSLRLSCAASGRTFSMGWFRQAPGKEREFVAAITYSGGSPYYASSVRGRFTISRDNAKNTVYLQMNSLKPEDTAVYYCAANPTYGSDWNAENWGQGTQVTVSSGSGGGGSGGGGSGGGGSFEQVQLQQPGAELVKPGASVKMSCKASGYAFSSYWINWMKQKPGQGLEWIGQIYPGDGDTNYNGKFKGRATLTADTSSSTAYMQLSSLTSEDSAVYFCARSITTVVGCAMDYWGQGTSVTVSSTREDLKNVFPPEVAVFEPSKAEIAHTQKATLVCLATGFYPDHVELSWWVNGKEVHSGVCTDPQPLKEQPALNDSRYCLSSRLRVSATFWQNPRNHFRCQVQFYGLSENDEWTQDRAKPVTQIVSAEAWGRADCGITSASYHQGVLSATILYEILLGKATLYAVLVSALVLMAMVKRKDSRGRAKRSGSGATNFSLLKQAGDVEENPGPSRGHMTEYKPTVRLATRDDVPRAVRTLAAAFADYPATRHTVDPDRHIERVTELQELFLTRVGLDIGKVWVADDGAAVAVWTTPESVEAGAVFAEIGPRMAELSGSRLAAQQQMEGLLAPHRPKEPAWFLATVGVSPDHQGKGLGSAVVLPGVEAAERAGVPAFLETSAPRNLPFYERLGFTVTADVEVPEGPRTWCMTRKPGA
modifications: Synthetic Polynucloetide
- GFP induction (JNG-GFP induction assay), RAJI CD19 KO A7 [1]: positive

B2: 4090 (protein)
chain: MALPVTALLLPLALLLHAARPDIQMTQSPSSLSASVGDRVTITCKASDHINNWLAWYQQKPGQAPKLLIYGATTLETGVPSRFSGSGSGTDYTLTISSLQPEDFATYYCQQSWNTPWTFGQGTKLEIKRLEDLKNVFPPEVAVFEPSEAEISHTQKATLVCLATGFYPDHVELSWWVNGKEVHSGVCTDPQPLKEQPALNDSRYCLSSRLRVSATFWQNPRNHFRCQVQFYGLSENDEWTQDRAKPVTQIVSAEAWGRADCGFTSESYQQGVLSATILYEILLGKATLYAVLVSALVLMAMVKRKDSRGRAKRSGSGATNFSLLKQAGDVEENPGPTSMDWIWRILFLVGAATGAHSGPQVQLQESGGGLAQAGGSLRLSCAASGRTFSMGWFRQAPGKEREFVAAITYSGGSPYYASSVRGRFTISRDNAKNTVYLQMNSLKPEDTAVYYCAANPTYGSDWNAENWGQGTQVTVSSGSGGGGSGGGGSGGGGSFEQVQLQQPGAELVKPGASVKMSCKASGYAFSSYWINWMKQKPGQGLEWIGQIYPGDGDTNYNGKFKGRATLTADTSSSTAYMQLSSLTSEDSAVYFCARSITTVVGCAMDYWGQGTSVTVSSTRIQNPDPAVYQLRDSKSSDKSVCLFTDFDSQTNVSQSKDSDVYITDKCVLDMRSMDFKSNSAVAWSNKSDFACANAFNNSIIPEDTFFPSPESSCDVKLVEKSFETDTNLNFQNLSVIGFRILLLKVAGFNLLMTLRLWSSRAKRSGSGVKQTLNFDLLKLAGDVESNPGPSRGHMTEYKPTVRLATRDDVPRAVRTLAAAFADYPATRHTVDPDRHIERVTELQELFLTRVGLDIGKVWVADDGAAVAVWTTPESVEAGAVFAEIGPRMAELSGSRLAAQQQMEGLLAPHRPKEPAWFLATVGVSPDHQGKGLGSAVVLPGVEAAERAGVPAFLETSAPRNLPFYERLGFTVTADVEVPEGPRTWCMTRKPGA
modifications: Synthetic Polynucloetide
- GFP induction (JNG-GFP induction assay), RAJI CD19 KO A7 [1]: positive

B3: 4089 (protein)
chain: B2 chain with E148K, S152A, F263I, E266A, Q269H, P709S, E710D, S711V, S712P
modifications: Synthetic Polynucloetide
- GFP induction (JNG-GFP induction assay), RAJI CD19 KO A7 [1]: positive

B4: 1330 (protein)
chain: MALPVTALLLPLALLLHAARPEVQLVESGGGLVQPGGSLRLSCTFSGGTFSSYTMGWFRQAPGKEREFVAEVRWGGVTTYSNSLKDRFSISEDSVKNAVYLQMNSLKPEDTAVYYCAAVRQMYMTVVPDYWGQGTLVTVSSSGGGGSDIQMTQSPSSLSASVGDRVTITCKASDHINNWLAWYQQKPGKAPKLLIYGATTLETGVPSRFSGSGSGTDFTLTISSLQPEDFATYYCQQSWNTPWTFGQGTKVEIKRLEDLKNVFPPEVAVFEPSEAEISHTQKATLVCLATGFYPDHVELSWWVNGKEVHSGVCTDPQPLKEQPALNDSRYCLSSRLRVSATFWQNPRNHFRCQVQFYGLSENDEWTQDRAKPVTQIVSAEAWGRADCGFTSESYQQGVLSATILYEILLGKATLYAVLVSALVLMAMVKRKDSRGRAKRSGSGATNFSLLKQAGDVEENPGPTSMDWIWRILFLVGAATGAHSFEEVQLVESGGGLVQPGGSLRLSCAASGYAFSSYWVNWVRQAPGKGLEWVAQIYPGDGDTNYNGKFKGRFTISRDNSKNTLYLQMNSLRAEDTAVYYCARSITTVVGCAMDYWGQGTLVTVSSTRIQNPDPAVYQLRDSKSSDKSVCLFTDFDSQTNVSQSKDSDVYITDKCVLDMRSMDFKSNSAVAWSNKSDFACANAFNNSIIPEDTFFPSPESSCDVKLVEKSFETDTNLNFQNLSVIGFRILLLKVAGFNLLMTLRLWSSRAKRSGSGVKQTLNFDLLKLAGDVESNPGPSRGHMTEYKPTVRLATRDDVPRAVRTLAAAFADYPATRHTVDPDRHIERVTELQELFLTRVGLDIGKVWVADDGAAVAVWTTPESVEAGAVFAEIGPRMAELSGSRLAAQQQMEGLLAPHRPKEPAWFLATVGVSPDHQGKGLGSAVVLPGVEAAERAGVPAFLETSAPRNLPFYERLGFTVTADVEVPEGPRTWCMTRKPGA
modifications: Synthetic Polynucloetide
- GFP induction (JNG-GFP induction assay), RAJI CD19 KO A7 [1]: able to induce T cell signaling and GFP expression
- GFP induction (JNG-GFP induction assay), DAUDI [2]: able to induce T cell signaling and GFP expression
- GFP induction (JNG-GFP induction assay), RS;411 [3]: able to induce T cell signaling and GFP expression

— patent US20230212319A1, “NOVEL ANTIGEN BINDING DOMAINS AND SYNTHETIC ANTIGEN RECEPTORS INCORPORATING THE SAME” (University of Southern California, priority 2020, published 2023)
